# The supplement of paper PMC8728848
# Some of the results follow.
# Experiments:
# Assay in all cases: glycan array binding signal (z-score within array); higher = stronger binding
# Conditions in all cases: glycan notation: IUPAC condensed, linker removed
# [1] = biological target: Neu5Ac(a2-6)Gal(b1-4)GlcNAc(b1-3)Gal(b1-4)[Fuc(a1-3)]GlcNAc(b1-3)Gal(b1-4)[Fuc(a1-3)]GlcNAc
# Outline: (§1)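 The Consortium for Functional Glycomics database supplied 3228 glycan arrays, of which those lacking an available protein sequence were dropped. The binding signal, a within-array Z-score, was averaged across arrays of the same protein sequence and across linkers. Negative scores can be read as non-binding.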
# [2] = biological target: Neu5Ac(a2-6)Gal(b1-4)GlcNAc(b1-3)GalNAc
# Outline: as §1
# [3] = biological target: Neu5Ac(a2-6)Gal(b1-4)GlcNAc(b1-3)[Neu5Ac(a2-6)Gal(b1-4)GlcNAc(b1-6)]GalNAc
# Outline: as §1
# [4] = biological target: Neu5Ac(a2-6)Gal(b1-4)GlcNAc(b1-6)GalNAc
# Outline: as §1
# [5] = biological target: Neu5Ac(a2-6)Gal(b1-4)GlcNAc(b1-6)[Gal(b1-3)GlcNAc(b1-3)]Gal(b1-4)Glc
# Outline: as §1
# [6] = biological target: Neu5Ac(a2-6)Gal(b1-4)GlcNAc(b1-6)[Gal(b1-3)]GalNAc
# Outline: as §1
# [7] = biological target: Neu5Ac(a2-6)Gal(b1-4)GlcNAc6S
# Outline: as §1
# Neu5Ac(a2-6)GalNAc = biological target: Neu5Ac(a2-6)GalNAc
# Outline: as §1
# [8] = biological target: Neu5Ac(a2-6)GalNAc(b1-4)GlcNAc
# Outline: as §1
# [9] = biological target: Neu5Ac(a2-6)GalNAc(b1-4)GlcNAc6S
# Outline: as §1
# [10] = biological target: Neu5Ac(a2-6)GlcNAc(b1-4)GlcNAc
# Outline: as §1
# [11] = biological target: Neu5Ac(a2-6)GlcNAc(b1-4)GlcNAc(b1-4)GlcNAc
# Outline: as §1
# Neu5Ac(a2-8)Neu5Ac = biological target: Neu5Ac(a2-8)Neu5Ac
# Outline: as §1
# [12] = biological target: Neu5Ac(a2-8)Neu5Ac(a2-3)Gal(b1-3)GalNAc(b1-4)[Neu5Ac(a2-3)]Gal(b1-4)Glc
# Outline: as §1
# [13] = biological target: Neu5Ac(a2-8)Neu5Ac(a2-3)Gal(b1-3)GalNAc(b1-4)[Neu5Ac(a2-8)Neu5Ac(a2-3)]Gal(b1-4)Glc
# Outline: as §1
# [14] = biological target: Neu5Ac(a2-8)Neu5Ac(a2-3)Gal(b1-4)Glc
# Outline: as §1
# [15] = biological target: Neu5Ac(a2-8)Neu5Ac(a2-3)Gal(b1-4)GlcNAc
# Outline: as §1
# [16] = biological target: Neu5Ac(a2-8)Neu5Ac(a2-3)[Gal(b1-3)GalNAc(b1-4)]Gal(b1-4)Glc
# Outline: as §1
# [17] = biological target: Neu5Ac(a2-8)Neu5Ac(a2-3)[GalNAc(b1-4)]Gal(b1-4)Glc
# Outline: as §1
# [18] = biological target: Neu5Ac(a2-8)Neu5Ac(a2-8)Neu5Ac
# Outline: as §1
# [19] = biological target: Neu5Ac(a2-8)Neu5Ac(a2-8)Neu5Ac(a2-3)Gal(b1-4)Glc
# Outline: as §1
# [20] = biological target: Neu5Ac(a2-8)Neu5Ac(a2-8)Neu5Ac(a2-3)[Gal(b1-3)GalNAc(b1-4)]Gal(b1-4)Glc
# Outline: as §1
# [21] = biological target: Neu5Ac(a2-8)Neu5Ac(a2-8)Neu5Ac(a2-3)[GalNAc(b1-4)]Gal(b1-4)Glc
# Outline: as §1
# [22] = biological target: Neu5Ac(a2-8)Neu5Ac(a2-8)Neu5Ac(a2-8)Neu5Ac(a2-3)[GalNAc(b1-4)]Gal(b1-4)Glc
# Outline: as §1
# [23] = biological target: Neu5Ac(a2-8)Neu5Gc(a2-3)Gal(b1-4)GlcNAc
# Outline: as §1
# Neu5Ac(b1-6)GalNAc = biological target: Neu5Ac(b1-6)GalNAc
# Outline: as §1
# [24] = biological target: Neu5Ac(b2-6)Gal(b1-4)GlcNAc
# Outline: as §1
# Neu5Ac(b2-6)GalNAc = biological target: Neu5Ac(b2-6)GalNAc
# Outline: as §1
# [25] = biological target: Neu5Ac9Ac(a2-3)Gal(b1-3)GlcNAc
# Outline: as §1
# [26] = biological target: Neu5Ac9Ac(a2-3)Gal(b1-4)GlcNAc
# Outline: as §1
# [27] = biological target: Neu5Ac9Ac(a2-6)Gal(b1-4)GlcNAc
# Outline: as §1
# [28] = biological target: Neu5Gc(a2-3)Gal(b1-3)GlcNAc
# Outline: as §1
# [29] = biological target: Neu5Gc(a2-3)Gal(b1-3)[Fuc(a1-4)]GlcNAc
# Outline: as §1
# Neu5Gc(a2-3)Gal(b1-4)Glc = biological target: Neu5Gc(a2-3)Gal(b1-4)Glc
# Outline: as §1
# [30] = biological target: Neu5Gc(a2-3)Gal(b1-4)GlcNAc
# Outline: as §1
# [31] = biological target: Neu5Gc(a2-3)Gal(b1-4)GlcNAc(b1-3)Gal(b1-4)GlcNAc(b1-2)Man(a1-3)[Neu5Gc(a2-3)Gal(b1-4)GlcNAc(b1-3)Gal(b1-4)GlcNAc(b1-2)Man(a1-6)]Man(b1-4)GlcNAc(b1-4)GlcNAc
# Outline: as §1
# [32] = biological target: Neu5Gc(a2-3)Gal(b1-4)[Fuc(a1-3)]GlcNAc
# Outline: as §1
# [33] = biological target: Neu5Gc(a2-6)Gal(b1-4)GlcNAc
# Outline: as §1
# Neu5Gc(a2-6)GalNAc = biological target: Neu5Gc(a2-6)GalNAc
# Outline: as §1
# [34] = biological target: Neu5Gc(a2-8)Neu5Ac(a2-3)Gal(b1-4)GlcNAc
# Outline: as §1
# [35] = biological target: Neu5Gc(a2-8)Neu5Gc(a2-3)Gal(b1-4)GlcNAc
# Outline: as §1
# [36] = biological target: Neu5Gc(a2-8)Neu5Gc(a2-3)Gal(b1-4)GlcNAc(b1-3)Gal(b1-4)GlcNAc
# Outline: as §1
# [37] = biological target: Neu5Gc(a2-8)Neu5Gc(a2-6)Gal(b1-4)GlcNAc
# Outline: as §1
# [38] = biological target: Neu5Gc(b2-6)Gal(b1-4)GlcNAc
# Outline: as §1
binder,measurement,setting,value
"ECA (Erythrina cristagalli), P83410 (protein) VETISFSFSEFEPGNDNLTLQGAALITQSGVLQLTKINQNGMPAWDSTGRTLYTKPVHMWDSTTGTVASFETRFSFSIEQPYTRPLPADGLVFFMGPTKSKPAQGYGYLGVFNNSKQDNSYQTLAVEFDTFSNPWDPPQVPHIGIDVNSIRSIKTQPFQLDNGQVANVVIKYDAPSKILHVVLVYPSSGAIYTIAEIVDVKQVLPDWVDVGLSGATGAQRDAAETHDVYSWSFQASLPE",glycan array binding signal (z-score),[1],-0.265
same,glycan array binding signal (z-score),[2],-0.045
same,glycan array binding signal (z-score),[3],-0.511
same,glycan array binding signal (z-score),[4],-0.044
same,glycan array binding signal (z-score),[5],-0.061
same,glycan array binding signal (z-score),[6],0.807
same,glycan array binding signal (z-score),[7],-0.295
same,glycan array binding signal (z-score),Neu5Ac(a2-6)GalNAc,-0.295
same,glycan array binding signal (z-score),[8],-0.27
same,glycan array binding signal (z-score),[9],-0.297
same,glycan array binding signal (z-score),[10],-0.33
same,glycan array binding signal (z-score),[11],-0.377
same,glycan array binding signal (z-score),Neu5Ac(a2-8)Neu5Ac,-0.151
same,glycan array binding signal (z-score),[12],0.193
same,glycan array binding signal (z-score),[13],-0.352
same,glycan array binding signal (z-score),[14],-0.341
same,glycan array binding signal (z-score),[15],-0.418
same,glycan array binding signal (z-score),[16],-0.481
same,glycan array binding signal (z-score),[17],-0.267
same,glycan array binding signal (z-score),[18],-0.233
same,glycan array binding signal (z-score),[19],-0.351
same,glycan array binding signal (z-score),[20],0.194
same,glycan array binding signal (z-score),[21],-0.05
same,glycan array binding signal (z-score),[22],-0.254
same,glycan array binding signal (z-score),[23],-0.431
same,glycan array binding signal (z-score),Neu5Ac(b1-6)GalNAc,-0.273
same,glycan array binding signal (z-score),[24],-0.088
same,glycan array binding signal (z-score),Neu5Ac(b2-6)GalNAc,-0.102
same,glycan array binding signal (z-score),[25],-0.113
same,glycan array binding signal (z-score),[26],0.603
same,glycan array binding signal (z-score),[27],-0.277
same,glycan array binding signal (z-score),[28],-0.312
same,glycan array binding signal (z-score),[29],-0.164
same,glycan array binding signal (z-score),Neu5Gc(a2-3)Gal(b1-4)Glc,-0.24
same,glycan array binding signal (z-score),[30],-0.327
same,glycan array binding signal (z-score),[31],-0.407
same,glycan array binding signal (z-score),[32],-0.344
same,glycan array binding signal (z-score),[33],-0.221
same,glycan array binding signal (z-score),Neu5Gc(a2-6)GalNAc,-0.262
same,glycan array binding signal (z-score),[34],-0.267
same,glycan array binding signal (z-score),[35],-0.361
same,glycan array binding signal (z-score),[36],-0.173
same,glycan array binding signal (z-score),[37],-0.091
same,glycan array binding signal (z-score),[38],-0.247
